Out of some 390,000 compounds screened, about 17,000 (4.4%) were called active. This list was built around the results that the source calls inconclusive (neither active nor inactive); the mix of calls is not that of the screen. The call rests on the fitted dose curve; in most records, active means well fitted inhibition curve with a large enough effect; inconclusive means small, poorly fitted or top-dose-only effect; inactive means no such curve, though single readings can be large or run the other way. Potencies of inconclusive entries are doubtful fits and often do not repeat.
The compounds below were run against Lysine-specific demethylase 4A (Homo sapiens) (UniProt O75164) (assay: qHTS Assay for Inhibitors of JMJD2A-Tudor Domain). Conditions: AlphaScreen JMJD2A-Tudor / H3K4me3 peptide binding; activity change, negative = inhibition: at 114 µM (top of the series).
Further: nearly all actives have a fitted effect of over 50% in size.
On the % scale 0 is the no-effect control and ±100 the full control effect; potency means the concentration at half of the fitted maximal effect; tags describe the fitted curve by direction and shape.

UniProt O75164, sequence (O75164 whole entry, looked up, the tested form may be a part): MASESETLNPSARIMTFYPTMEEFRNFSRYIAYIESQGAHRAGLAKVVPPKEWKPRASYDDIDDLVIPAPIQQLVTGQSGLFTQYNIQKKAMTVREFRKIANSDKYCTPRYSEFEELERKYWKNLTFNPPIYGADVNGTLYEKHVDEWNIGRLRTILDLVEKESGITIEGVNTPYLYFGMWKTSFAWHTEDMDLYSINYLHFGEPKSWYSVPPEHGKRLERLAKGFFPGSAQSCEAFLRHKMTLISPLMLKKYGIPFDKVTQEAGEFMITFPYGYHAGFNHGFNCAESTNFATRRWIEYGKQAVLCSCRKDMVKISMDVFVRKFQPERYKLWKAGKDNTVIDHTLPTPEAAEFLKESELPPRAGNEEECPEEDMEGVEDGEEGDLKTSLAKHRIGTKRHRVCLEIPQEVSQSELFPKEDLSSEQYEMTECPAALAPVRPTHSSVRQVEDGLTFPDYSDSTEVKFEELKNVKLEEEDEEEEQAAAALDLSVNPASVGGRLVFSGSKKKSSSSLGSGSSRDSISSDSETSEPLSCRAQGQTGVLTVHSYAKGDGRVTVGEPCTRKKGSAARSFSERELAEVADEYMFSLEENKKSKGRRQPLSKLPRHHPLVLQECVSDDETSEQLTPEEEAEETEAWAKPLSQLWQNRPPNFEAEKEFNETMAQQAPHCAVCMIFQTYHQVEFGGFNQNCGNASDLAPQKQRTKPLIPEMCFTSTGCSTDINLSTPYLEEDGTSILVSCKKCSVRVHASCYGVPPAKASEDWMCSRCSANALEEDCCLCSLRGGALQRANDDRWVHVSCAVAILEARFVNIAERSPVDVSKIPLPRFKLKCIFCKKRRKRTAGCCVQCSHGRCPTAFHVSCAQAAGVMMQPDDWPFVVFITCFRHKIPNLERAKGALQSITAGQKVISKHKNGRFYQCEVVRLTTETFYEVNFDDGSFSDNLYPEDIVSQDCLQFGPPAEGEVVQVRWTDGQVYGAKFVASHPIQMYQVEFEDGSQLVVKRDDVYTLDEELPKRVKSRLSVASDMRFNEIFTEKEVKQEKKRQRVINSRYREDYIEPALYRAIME

Activity change, negative = inhibition, inactive:
CCOc1ccccc1NC(=O)c1cc(CC(C)C)oc1C 17.4%, COc1cccc(CNC(=O)COC(=O)c2ccc(Cl)s2)c1 -8.28%, COc1cccc(OCCCn2c(-c3ccc(Cl)cc3)nc3ccccc3c2=O)c1 52.6%, Cc1nnc(N2CCN(c3ccc(Cl)cc3)CC2)c2c1nnn2Cc1ccc(F)cc1 -13.5%, Cc1cccnc1NC(=O)c1ccc2c(c1)OCCO2 -8.97%, CC1CN(C(c2ccco2)c2sc3ncnn3c2O)CC(C)O1 (configuration not stated) -12.7%, Cc1cc(N2CCOCC2)nc2ccc(NC(=O)C3CCCCC3)cc12 -11.3%

Potency, inconclusive:
Oc1ccc(Nc2nc(-c3ccc(O)cc3)cs2)cc1 44.7 µM [inhibitor, partial curve], CCC1Nc2ncnc(N3CCN(c4ccccn4)CC3)c2N(Cc2ccc(Cl)cc2)C1=O (configuration not stated) 50.1 µM [inhibitor, partial curve], CCOc1ccc(/C=N/NC(=S)Nc2c(C)cccc2C)cc1 70.8 µM [inhibitor, single point], C/C(=N\NC(=S)NCc1ccccc1)C1CCCCC1 79.4 µM [inhibitor, partial curve], Cc1sc(NC(=O)CN2CCCC2)nc1-c1ccc2c(c1)CCN2C(=O)c1ccc(F)cc1 25.1 µM [inhibitor, full curve, poor fit], Nc1nc(-c2ccccn2)nc(N)c1Cc1ccccc1F 63.1 µM [inhibitor, partial curve, poor fit], C=CCOc1ccc2c(c1)CCC1C2CCC2(C)C(O)C(O)CC12 (configuration not stated) 89.1 µM [inhibitor, single point], COc1ccc(-c2oc3ncn(Cc4ccco4)c(=N)c3c2-c2ccc(OC)cc2)cc1 22.4 µM [inhibitor, full curve], Cc1cc(C)n(CCO)c(=O)n1 22.4 µM [inhibitor, full curve], NC(=S)NN=C1c2cc(S(=O)(=O)N3CCOCC3)ccc2-c2ccc(S(=O)(=O)N3CCOCC3)cc21 0.631 µM [inhibitor, full curve, poor fit], CC(=O)Nc1ccc(N=Nc2ccccc2)cc1 44.7 µM [inhibitor, partial curve]

Potency, active:
Oc1ccc(C=NNC(=S)Nc2cccnc2)nc1 10 µM, Cc1cc(C)nc(SCC(=O)NN=C2CCCC2)n1 17.8 µM, CCCNC(=S)NCCN1CCCCC1 39.8 µM, O=C1CCCC(O)=C1C(C#Cc1ccccc1)C1=C(O)CCCC1=O 15.8 µM
